From the supplement of paper PMC9990464 come the findings set out here.

Molecules are shown by their SMILES. Where a name gives a salt, the structure may show the parent alone. ± gives the standard deviation of the averaged measurements. Some of the results follow. Most values come without repeats; read them as rough.

The test system of the first experiment is KCNR. The experiment can be described thus: area under viability curve (10 nM-1 µM), viability relative to solvent or trametinib-only control (AUC (arbitrary, % viability x concentration range)); higher = less growth inhibition (more viable cells). The conditions noted are these: 72 h compound exposure (96 h after seeding) h; trametinib co-treatment 0 µM. The protocol: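 Four neuroblastoma cell lines (KCNR, SKNBE, SJNB8, SKNAS) were seeded in 384-well plates. At 24 h, 1 µM trametinib or DMSO was added, followed by library compounds at 10 nM, 100 nM and 1 µM. Viability was read by MTT at 96 h and normalised to solvent-treated cells (DMSO arm) or to trametinib-only cells (trametinib arm). The area under the 3-point viability curve was computed in GraphPad Prism; units are as given (approx. 100000 = no effect).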
For `COc1cc2c(cc1OC)CN(CCc1ccc(NC(=O)c3cccc4c(=O)c5cccc(OC)c5[nH]c34)cc1)CC2` [Elacridar HCl], the “area under viability curve” value came to 101000.
Same read-out and setting: to `Cc1[nH]c(/C=C2\C(=O)Nc3ccc(S(=O)(=O)N(C)c4cccc(Cl)c4)cc32)c(C)c1C(=O)N1CCN(C)CC1` belongs 101000; to `CCCC(CCC)C(=O)O` [Valproic acid], 103000.
On to `Cn1cnc2c(F)c(Nc3ccc(Br)cc3Cl)c(C(=O)NOCCO)cc21` [Selumetinib], for which the “area under viability curve” value was determined as 107000.
Still for that read-out and setting: to `COc1cc(C(=O)O)ccc1NC(=O)[C@@H]1N[C@@H](CC(C)(C)C)[C@](C#N)(c2ccc(Cl)cc2F)[C@H]1c1cccc(Cl)c1F` [Idasanutlin] belongs 46500; to `O=C(NC1CCNCC1)c1n[nH]cc1NC(=O)c1c(Cl)cccc1Cl`, 63200.
Take `CC(C)C[C@H](NC(=O)[C@@H](Cc1c[nH]c2ccccc12)NC(=O)[C@H](Cc1ccc(O)cc1)NC(=O)[C@H](CO)NC(=O)[C@H](Cc1c[nH]c2ccccc12)NC(=O)[C@H](Cc1cnc[nH]1)NC(=O)[C@@H]1CCC(=O)N1)C(=O)N[C@@H](CCCN=C(N)N)C(=O)N1CCC[C@H]1C(=O)NCC(N)=O` [Triptorelin acetate]: the “area under viability curve” value was determined as 105000.
Consider `COc1cccc2c1C(=O)c1c(O)c3c(c(O)c1C2=O)C[C@@](O)(C(=O)CO)C[C@@H]3O[C@H]1C[C@H](N)[C@H](O)[C@H](C)O1` [Adriamycin], for which the “area under viability curve” value worked out at 8620.
Still for that read-out and setting: for `CCC1=C[C@H]2CN(C1)Cc1c([nH]c3ccccc13)[C@@](C(=O)OC)(c1cc3c(cc1OC)N(C)[C@H]1[C@@](O)(C(=O)OC)[C@H](OC(C)=O)[C@]4(CC)C=CCN5CC[C@]31[C@@H]54)C2` [Vinorelbine bitatrate] the value was 14300.
On the same count and under the same terms, for `Nc1ncn([C@H]2C[C@H](O)[C@@H](CO)O2)c(=O)n1` [Decitabine] the value was 76100; for `COc1cccc2c1C(=O)c1c(O)c3c(c(O)c1C2=O)C[C@@](O)(C(=O)CO)C[C@@H]3O[C@H]1C[C@H](N)[C@@H](O)[C@H](C)O1` [Epirubicin hydrochloride], 41900; for `CNC(=O)c1ccccc1Sc1ccc2c(/C=C/c3ccccn3)n[nH]c2c1` [Axitinib], 62400.
Take `Cc1cn(-c2cc(NC(=O)c3ccc(C)c(Nc4nccc(-c5cccnc5)n4)c3)cc(C(F)(F)F)c2)cn1` [Nilotinib]: the “area under viability curve” value is 94500.
The same measure, in the same setting: for `CCNC(=O)[C@@H]1CCCN1C(=O)[C@H](CCCNC(=N)N)NC(=O)[C@H](CC(C)C)NC(=O)[C@@H](CC(C)C)NC(=O)[C@H](Cc1ccc(O)cc1)NC(=O)[C@H](CO)NC(=O)[C@H](Cc1c[nH]c2ccccc12)NC(=O)[C@H](Cc1c[nH]cn1)NC(=O)[C@@H]1CCC(=O)N1` [Leuprolide acetate] the value was 102000; for `CC1(C)CCC(c2ccc(Cl)cc2)=C(CN2CCN(c3ccc(C(=O)NS(=O)(=O)c4ccc(N[C@H](CCN5CCOCC5)CSc5ccccc5)c(S(=O)(=O)C(F)(F)F)c4)cc3)CC2)C1` [Navitoclax], 45800 ± 6000; for `Cc1cc(Nc2cc(N3CCN(C)CC3)nc(Sc3ccc(NC(=O)C4CC4)cc3)n2)n[nH]1` [Tozasertib], 32000.
Consider `CC(C)C1O[C@H](CN)[C@@H](CN)O1.O=C([O-])CC(=O)[O-].[Pt+2]` [Eptaplatin], for which the “area under viability curve” value was 101000.
As for `CC(C(=O)Nc1cccc(/N=C/c2c(O)ccc3ccccc23)c1)c1ccccc1` (stereo not given) [Salermide], the “area under viability curve” value was found to be 107000.
`Nc1cccc2c1CN(C1CCC(=O)NC1=O)C2=O` (stereo not given) [Lenalidomide]: the “area under viability curve” value worked out at 105000.
Same read-out and setting: to `COc1cc(Nc2c(C#N)cnc3cc(OCCCN4CCN(C)CC4)c(OC)cc23)c(Cl)cc1Cl` [Bosutinib isomer 1] belongs 101000.

Still in this experiment, the particulars now being: 72 h compound exposure (96 h after seeding) h; trametinib co-treatment 1 µM.
For the compound `COc1cc2c(cc1OC)CN(CCc1ccc(NC(=O)c3cccc4c(=O)c5cccc(OC)c5[nH]c34)cc1)CC2` [Elacridar HCl], the “area under viability curve” value was 105000.
Consider `Cc1[nH]c(/C=C2\C(=O)Nc3ccc(S(=O)(=O)N(C)c4cccc(Cl)c4)cc32)c(C)c1C(=O)N1CCN(C)CC1`, for which the “area under viability curve” value was 100000.
Turning to `CCCC(CCC)C(=O)O` [Valproic acid], the “area under viability curve” value is 104000.
On the same count and under the same terms, to `Cn1cnc2c(F)c(Nc3ccc(Br)cc3Cl)c(C(=O)NOCCO)cc21` [Selumetinib] belongs 99600.
Same read-out and setting: to `COc1cc(C(=O)O)ccc1NC(=O)[C@@H]1N[C@@H](CC(C)(C)C)[C@](C#N)(c2ccc(Cl)cc2F)[C@H]1c1cccc(Cl)c1F` [Idasanutlin] belongs 21800; to `O=C(NC1CCNCC1)c1n[nH]cc1NC(=O)c1c(Cl)cccc1Cl`, 66400; to `CC(C)C[C@H](NC(=O)[C@@H](Cc1c[nH]c2ccccc12)NC(=O)[C@H](Cc1ccc(O)cc1)NC(=O)[C@H](CO)NC(=O)[C@H](Cc1c[nH]c2ccccc12)NC(=O)[C@H](Cc1cnc[nH]1)NC(=O)[C@@H]1CCC(=O)N1)C(=O)N[C@@H](CCCN=C(N)N)C(=O)N1CCC[C@H]1C(=O)NCC(N)=O` [Triptorelin acetate], 97500.
The same measure, in the same setting: for `COc1cccc2c1C(=O)c1c(O)c3c(c(O)c1C2=O)C[C@@](O)(C(=O)CO)C[C@@H]3O[C@H]1C[C@H](N)[C@H](O)[C@H](C)O1` [Adriamycin] the value was 5420; for `CCC1=C[C@H]2CN(C1)Cc1c([nH]c3ccccc13)[C@@](C(=O)OC)(c1cc3c(cc1OC)N(C)[C@H]1[C@@](O)(C(=O)OC)[C@H](OC(C)=O)[C@]4(CC)C=CCN5CC[C@]31[C@@H]54)C2` [Vinorelbine bitatrate], 13000.
For `Nc1ncn([C@H]2C[C@H](O)[C@@H](CO)O2)c(=O)n1` [Decitabine], the “area under viability curve” value came out at 81000.
With `COc1cccc2c1C(=O)c1c(O)c3c(c(O)c1C2=O)C[C@@](O)(C(=O)CO)C[C@@H]3O[C@H]1C[C@H](N)[C@@H](O)[C@H](C)O1` [Epirubicin hydrochloride], the “area under viability curve” value is 18500.
On the same count and under the same terms, for `CNC(=O)c1ccccc1Sc1ccc2c(/C=C/c3ccccn3)n[nH]c2c1` [Axitinib] the value was 63400; for `Cc1cn(-c2cc(NC(=O)c3ccc(C)c(Nc4nccc(-c5cccnc5)n4)c3)cc(C(F)(F)F)c2)cn1` [Nilotinib], 100000; for `CCNC(=O)[C@@H]1CCCN1C(=O)[C@H](CCCNC(=N)N)NC(=O)[C@H](CC(C)C)NC(=O)[C@@H](CC(C)C)NC(=O)[C@H](Cc1ccc(O)cc1)NC(=O)[C@H](CO)NC(=O)[C@H](Cc1c[nH]c2ccccc12)NC(=O)[C@H](Cc1c[nH]cn1)NC(=O)[C@@H]1CCC(=O)N1` [Leuprolide acetate], 101000.
Still for that read-out and setting: for `CC1(C)CCC(c2ccc(Cl)cc2)=C(CN2CCN(c3ccc(C(=O)NS(=O)(=O)c4ccc(N[C@H](CCN5CCOCC5)CSc5ccccc5)c(S(=O)(=O)C(F)(F)F)c4)cc3)CC2)C1` [Navitoclax] the value was 18500 ± 7400; for `Cc1cc(Nc2cc(N3CCN(C)CC3)nc(Sc3ccc(NC(=O)C4CC4)cc3)n2)n[nH]1` [Tozasertib], 38500.
With `CC(C)C1O[C@H](CN)[C@@H](CN)O1.O=C([O-])CC(=O)[O-].[Pt+2]` [Eptaplatin], the “area under viability curve” value turned out to be 107000.
Still for that read-out and setting: for `CC(C(=O)Nc1cccc(/N=C/c2c(O)ccc3ccccc23)c1)c1ccccc1` (stereo not given) [Salermide] the value was 99600; for `Nc1cccc2c1CN(C1CCC(=O)NC1=O)C2=O` (stereo not given) [Lenalidomide], 95000; for `COc1cc(Nc2c(C#N)cnc3cc(OCCCN4CCN(C)CC4)c(OC)cc23)c(Cl)cc1Cl` [Bosutinib isomer 1], 106000.
